In EP4731682A1 (dated 2026):

T1: recombinant human PVR-ECD/His (human, UniProt P15151 21-343)
T1 construct: extracellular domain; Bought reagent; not shown: C-terminal His-tag
T1 sequence (looked up): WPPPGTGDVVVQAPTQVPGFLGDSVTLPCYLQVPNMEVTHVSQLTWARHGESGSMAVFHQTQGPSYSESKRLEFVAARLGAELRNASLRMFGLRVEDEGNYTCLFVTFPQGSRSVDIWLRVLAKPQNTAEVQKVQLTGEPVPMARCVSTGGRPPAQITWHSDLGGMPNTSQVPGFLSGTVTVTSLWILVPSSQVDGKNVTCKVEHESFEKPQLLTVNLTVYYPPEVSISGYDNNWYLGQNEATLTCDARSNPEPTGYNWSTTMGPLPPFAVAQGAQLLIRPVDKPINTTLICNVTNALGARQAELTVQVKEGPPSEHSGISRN

T2: recombinant human Nectin-2-ECD/Fc fusion protein (human, UniProt Q92692 32-360)
T2 construct: extracellular domain; Bought reagent; not shown: Fc of the bought fusion protein
T2 sequence (looked up): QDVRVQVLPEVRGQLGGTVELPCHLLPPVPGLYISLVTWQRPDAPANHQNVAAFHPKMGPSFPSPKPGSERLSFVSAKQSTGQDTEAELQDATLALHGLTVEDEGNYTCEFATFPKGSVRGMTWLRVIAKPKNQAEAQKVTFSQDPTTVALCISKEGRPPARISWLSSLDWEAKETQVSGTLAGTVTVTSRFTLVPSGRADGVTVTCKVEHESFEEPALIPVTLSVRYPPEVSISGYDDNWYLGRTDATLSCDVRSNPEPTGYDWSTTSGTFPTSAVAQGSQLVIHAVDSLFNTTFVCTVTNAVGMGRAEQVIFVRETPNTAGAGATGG

B1: TIGIT/G4Fc (Fc fusion)
chain: MMTGTIETTGNISAEKGGSIILQCHLSSTTAQVTQVNWEQQDQLLAICNADLGWHISPSFKDRVAPGPGLGLTLQSLTVNDTGEYFCIYHTYPDGTYTGRIFLEVLESSVAEHGARAS[human IgG4 Fc with S228P (EU numbers) not shown]
notes: TIGIT extracellular domain fused to an IgG4 Fc; also called Biotin-TIGIT/G4Fc
B2: TgPS-C1_v2 (Fc fusion)
chain: SHGHHGHGGGGPTFSPALLVVTEGDNATFTCSFSNTSESFVLNWYRMSPHNQTDKLAAFPEDRSQPGQDCRFRVTQLPNGRDFHMSVVRARRNDSGTYLCGAISLAPKAQIKESLRAELRVTERRAEVPTAHPSPSPRPAGQFQTLVGSGGSGGSGGSGGSGMMTGTIETTGNISAEKGGSIILQCHLSSTTAQVTQVNWEQQDQLLAICNADLGWHISPSFKDRVAPGPGLGLTLQSLTVNDTGEYFCIYHTYPDGTYTGRIFLEVLESSVAEHGARAS[human IgG1 Fc with changes not shown]AAASSGGGGSGGGGSEEELQVIQPDKSVSVAAGESAILRCTVTSLTPVGPIQWFRGAGPARELIYNQKAKQFPRVTTVSESTKRENMIFSISISNITPADAGTYYCVKFRKGSPDTEFKSGAGTELSVRAKPS
notes: Two identical chains
B3: TgPS-C2_v2 (Fc fusion)
chain: SHGHHGHGGGGPTFSPALLVVTEGDNATFTCSFSNTSESFVLNWYRMSPHNQTDKLAAFPEDRSQPGQDCRFRVTQLPNGRDFHMSVVRARRNDSGTYLCGAISLAPKAQIKESLRAELRVTERRAEVPTAHPSPSPRPAGQFQTLVGSGGSGGSGGSGGSGMMTGTIETTGNISAEKGGSIILQCHLSSTTAQVTQVNWEQQDQLLAICNADLGWHISPSFKDRVAPGPGLGLTLQSLTVNDTGEYFCIYHTYPDGTYTGRIFLEVLESSVAEHGARAS[human IgG4 Fc with S228P (EU numbers) not shown]AAASSGGGGSGGGGSEEELQVIQPDKSVSVAAGESAILRCTVTSLTPVGPIQWFRGAGPARELIYNQKAKQFPRVTTVSESTKRENMIFSISISNITPADAGTYYCVKFRKGSPDTEFKSGAGTELSVRAKPS
notes: Two identical chains
B4: TgPS-D_v2 (Fc fusion)
chain: MMTGTIETTGNISAEKGGSIILQCHLSSTTAQVTQVNWEQQDQLLAICNADLGWHISPSFKDRVAPGPGLGLTLQSLTVNDTGEYFCIYHTYPDGTYTGRIFLEVLESSVAEHGARGSGGSGGSGGSGGSGSHGHHGHGGGGPTFSPALLVVTEGDNATFTCSFSNTSESFVLNWYRMSPHNQTDKLAAFPEDRSQPGQDCRFRVTQLPNGRDFHMSVVRARRNDSGTYLCGAISLAPKAQIKESLRAELRVTERRAEVPTAHPSPSPRPAGQFQTLVAS[human IgG4 Fc with S228P (EU numbers) not shown]AAASSGGGGSGGGGSEEELQVIQPDKSVSVAAGESAILRCTVTSLTPVGPIQWFRGAGPARELIYNQKAKQFPRVTTVSESTKRENMIFSISISNITPADAGTYYCVKFRKGSPDTEFKSGAGTELSVRAKPS
notes: Two identical chains
B5: TgPS-E_v2 (Fc fusion)
chain: MMTGTIETTGNISAEKGGSIILQCHLSSTTAQVTQVNWEQQDQLLAICNADLGWHISPSFKDRVAPGPGLGLTLQSLTVNDTGEYFCIYHTYPDGTYTGRIFLEVLESSVAEHGARAS[human IgG4 Fc with S228P (EU numbers) not shown]AAASSGGGGSGGGGSEEELQVIQPDKSVSVAAGESAILRCTVTSLTPVGPIQWFRGAGPARELIYNQKAKQFPRVTTVSESTKRENMIFSISISNITPADAGTYYCVKFRKGSPDTEFKSGAGTELSVRAKPSGSGGSGGSGGSGGSGSHGHHGHGGGGPTFSPALLVVTEGDNATFTCSFSNTSESFVLNWYRMSPHNQTDKLAAFPEDRSQPGQDCRFRVTQLPNGRDFHMSVVRARRNDSGTYLCGAISLAPKAQIKESLRAELRVTERRAEVPTAHPSPSPRPAGQFQTLV
notes: Two identical chains
B6: TIGIT/G1Fc (Fc fusion)
chain: MMTGTIETTGNISAEKGGSIILQCHLSSTTAQVTQVNWEQQDQLLAICNADLGWHISPSFKDRVAPGPGLGLTLQSLTVNDTGEYFCIYHTYPDGTYTGRIFLEVLESSVAEHGARAS[human IgG1 Fc with changes not shown]
notes: TIGIT extracellular domain fused to an IgG1 Fc
B7: SIRPα-mt15/G1Fc (Fc fusion)
chain: EEELQVIQPDKSVSVAAGESAILRCTVTSLTPVGPIQWFRGAGPARELIYNQKAKQFPRVTTVSESTKRENMIFSISISNITPADAGTYYCVKFRKGSPDTEFKSGAGTELSVRAKPSAS[human IgG1 Fc with changes not shown]
B8: PD-1-mt13/G4Fc (Fc fusion)
chain: SHGHHGHGGGGPTFSPALLVVTEGDNATFTCSFSNTSESFVLNWYRMSPHNQTDKLAAFPEDRSQPGQDCRFRVTQLPNGRDFHMSVVRARRNDSGTYLCGAISLAPKAQIKESLRAELRVTERRAEVPTAHPSPSPRPAGQFQTLV[human IgG4 Fc with S228P (EU numbers) not shown]

What follows are binders tested against T1, recombinant human PVR-ECD/His (assay: ELISA; PVR-ECD/His coated 1 ug/mL, HRP anti-human IgG Fc (FIG. 16A)).

Row | Binder | binding result
1 | B1 | binds
2 | B2 | binds
3 | B3 | binds
4 | B4 | binds
5 | B5 | binds
6 | B6 | binds

The binders below were run against T3, recombinant PVR-ECD/Fc fusion protein (human, biotinylated (Biotin-PVR-ECD/Fc; sites not stated)) (assay: ELISA; binder coated 1 ug/mL, serially diluted Biotin-PVR-ECD/Fc, HRP-avidin (FIG. 2A)).
T3 construct: also called Biotin-PVR-ECD/Fc

Row | Binder | binding result
7 | B1 | binds

The binders below were run against T4, recombinant human CD47-ECD/His (human, UniProt Q08722 in part) (assay: ELISA; CD47-ECD/His coated 1 ug/mL, HRP anti-human IgG Fc (FIG. 16C)).
T4 construct: extracellular domain; Bought reagent; not shown: C-terminal His-tag
T4 sequence (Q08722 19-139 limits assumed): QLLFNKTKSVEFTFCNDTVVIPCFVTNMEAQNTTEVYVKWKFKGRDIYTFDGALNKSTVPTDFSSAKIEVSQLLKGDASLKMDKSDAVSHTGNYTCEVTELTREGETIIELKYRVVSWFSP

Row | Binder | binding result
8 | B2 | binds
9 | B3 | binds
10 | B4 | binds
11 | B5 | binds
12 | B7 | binds

The binders below were run against T5, recombinant human PD-L1-ECD/His (human, UniProt Q9NZQ7 in part) (assay: ELISA; PD-L1-ECD/His coated 1 ug/mL, HRP anti-human IgG Fc (FIG. 16B)).
T5 construct: extracellular domain; Bought reagent; not shown: C-terminal His-tag
T5 sequence (Q9NZQ7 19-238): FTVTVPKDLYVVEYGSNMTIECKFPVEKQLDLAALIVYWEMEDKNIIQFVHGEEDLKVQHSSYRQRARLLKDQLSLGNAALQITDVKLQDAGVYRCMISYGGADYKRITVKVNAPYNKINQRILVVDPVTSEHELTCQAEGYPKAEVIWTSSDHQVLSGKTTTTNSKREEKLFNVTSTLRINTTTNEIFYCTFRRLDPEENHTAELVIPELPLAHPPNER

Row | Binder | binding result
13 | B2 | binds
14 | B3 | binds
15 | B4 | binds
16 | B5 | binds
17 | B8 | binds

Each binder was assayed against T2, recombinant human Nectin-2-ECD/Fc … (assay: ELISA; Nectin-2-ECD/Fc coated 1 ug/mL, Biotin-TIGIT/G4Fc, HRP-avidin (FIG. 2B)).

Row | Binder | binding result
18 | B1 | binds
